Experimental data taken from ChEMBL document CHEMBL4888484, “Replenishing the malaria drug discovery pipeline: Screening and hit evaluation of the MMV Hit Generation Library 1 (HGL1) against asexual blood stage Plasmodium falciparum ,using a nano luciferase reporter read-out” (2022).
The campaign covered roughly 150,000 compounds. About 540 (0.36%) showed an effect of 50% or more. Some of the results follow.

System: Plasmodium falciparum
Assay: Primary screen in NF54 nanoGlo assay, in single point, at 2uM, 72h; a lower Z score goes with more inhibition
Type: functional, Erythrocyte
Settings: timepoint 72 hour

SMILES | % Inhibition | Z score
CCOCCC1(C(=O)Nc2nc(COC)cs2)CCCC1 | -10% | 1.36
COc1ccc([C@@H]2CCCN2C(=O)c2cnn(C)c2C)cc1OC | -3% | 0.28
COC(=O)C1(N)CC(COCc2ccccc2)C1 (stereo not given) | 20% | -2.38
COCCn1nc2n(c1=O)CC[C@@H](CC(=O)Nc1ccccc1CCc1ccccn1)CC2 | -3% | 0.45
COc1ccccc1-c1c(C)nn2c(N3CCN(c4ccc(Cl)cc4)CC3)cc(C)nc12 | -1% | 0.16
CCCn1nc(-c2ccc(Cl)s2)cc1C(=O)NCCc1ccccc1 | 6% | -0.62
CC(C)Oc1ccc(C(=O)N2CC[C@@H](c3ccccc3)S(=O)(=O)CC2)cc1 | -9% | 1.47
CCOc1ccc(Br)cc1C#N | -7% | 0.97
Cc1cc(CN2CCN(Cc3ccnc(C)c3)c3ccc(O)cc3C2)ccn1 | -6% | 1.07
O=C(CN1CN(c2ccccc2)C2(CCN(C(=O)c3cccc(C(F)(F)F)c3)CC2)C1=O)Nc1ccccc1 | 20% | -3.59
CC(C)Cc1cc(CNC(=O)[C@H]2C[C@H]3C=C[C@@H]2C3)no1 | 6% | -0.79
N#CCOC(=O)c1ccc(C(N)=O)cc1 | -10% | 0.84
COc1ccc2c(c1Cl)[C@@H](NCc1nonc1C)CCC2 | 1% | -0.24
Cc1ccccc1C(=O)Nc1ccccc1-c1nc2ccccc2[nH]c1=O | -18% | 3.47
Cc1ccc(N(CC#N)c2ncn[nH]2)c(C)c1 | -26% | 3.09
CC(C)(C)c1nc(CN2CCN(C(=O)c3c[nH]nn3)CC2)cs1 | 1% | -0.08
Cn1cc(-c2cc(CN3CCc4ccccc4[C@@H]3CO)on2)cn1 | -2% | 0.22
Cn1nnc2cc(S(=O)(=O)N3CCCC3(C)C)ccc21 | -9% | 0.79
CN(C(=O)OC(C)(C)C)C1(C(=O)NCCc2cncn2C)CCC1 | -7% | 1.47
CCCN(CC1CC1)C(=O)[C@@H](NC(N)=O)C(C)(C)C | -13% | 2.55
C=C(C)C[C@H](C)C(=O)Nc1ccn(C)c(=O)n1 | -13% | 1.79
CCOC(=O)Cc1csc(NC(=O)c2cnc(O[C@H]3CCOC3)c(Cl)c2)n1 | 2% | -0.42
CC1CCC(NC(=O)Cc2c[nH]c3ccccc23)CC1 (stereo not given) | 2% | -0.24
Cc1nc(CCNC(=O)[C@@H]2Cc3ccccc3S(=O)(=O)N2)nc2c1CCC2 | 1% | -0.25
O=S(=O)(N1CCOCC1)N1CC[C@H](n2cnc3ccccc32)C1 | -18% | 2.33
COc1ccc(CCC(=O)NC2(c3cccs3)CCOCC2)cc1 | 2% | -0.31
Oc1cc(CC[C@H]2CCCCN2)cc(-c2cnc3ccccc3n2)c1 | 59% | -7.37
CCc1cc(NC(=O)Cc2ccc(OC)cc2)nc(C)n1 | -6% | 0.8

SMILES | % Inhibition | Z score
COc1cccc(OC)c1OCC1CN(CC(O)CN2CCOCC2)CCO1 (stereo not given) | 6% | -0.63
Cc1nc(N)nc(C)c1CC(=O)NC(c1ccccn1)[C@H]1C[C@@H](O)C1 (stereo not given in full) | -3% | 0.35
CC(C)Cc1cc(C(=O)N[C@]2(C(=O)O)CCCc3ccccc32)on1 | 0% | -0.01
C/C(=C\c1nsc(Nc2ccccc2)n1)NCCc1ccccc1 | -5% | 0.71
N#Cc1cccc(-c2c[nH]c(CNc3nc4cc(C(F)(F)F)ccc4s3)n2)c1 | 34% | -4.6
Cc1nc2n(n1)C[C@@H](NS(C)(=O)=O)CC2 | 28% | -3.21
CC(C)(C)c1ncc(C(=O)N2CCCN(CC(N)=O)CC2)s1 | -6% | 1.16
Cc1cc(F)c(S(N)(=O)=O)c(NCCCN2CCNC(=O)C2)c1 | 3% | -0.52
Cc1[nH][nH]c(=O)c1CC(=O)N[C@H]1CCC[C@H]1Cc1ccc(F)cc1 | -30% | 2.77
Cc1nc2c(c(=O)n1C)CN(C(=O)Cc1c[nH]c3ccccc13)C2 | -14% | 1.5
C=C(C)COc1ccc(C(=O)NCCNc2nc(C)cc(=O)[nH]2)cc1 | 13% | -1.65
CCNC(=O)C1CC(c2ccc(F)cc2)NS(=O)(=O)N1C (stereo not given) | -18% | 1.61
Cc1ccc(-c2csc(NC(=O)c3csc(-c4nnc[nH]4)n3)n2)cc1 | -6% | 0.76
CCC(c1ccccc1)C1CCCN1C(=O)Cc1csc(NC(=O)C(C)C)n1 (stereo not given) | -2% | 0.36
O=C(NCc1ccccc1F)[C@@H]1CCN(c2ccccc2Cc2ccccc2)C1=O | 10% | -1.51
Cc1nc[nH]c1C(=O)NCC1CCN(Cc2ccoc2)CC1 | 10% | -1.06
CCc1cc(N2CCc3nnc(Cc4cccnc4)n3CC2)n2nccc2n1 | -2% | 0.32
O=C(Nc1ccc2c(c1)OCO2)N1Cc2cccnc2C1 | -4% | 0.59
CCNC(=O)c1nn(CC2CC2)c2c1CN(Cc1ccco1)CC2 | -17% | 1.92
CC(C)(C)CN1C[C@@H](C(=O)O)C[C@@H](C(=O)Nc2ccc(F)cc2)C1 | 3% | -0.49
C[C@]1(O)C[C@@H](Nc2ccnc(C#N)c2)C1 | -2% | 0.36
COc1cc(C)ccc1Oc1ccc(F)cc1NC(=O)N1CC(C)OC(C)C1 (stereo not given) | -7% | 1.22
c1ccc(C2=NOC(c3ccccc3)(c3ccccc3)C2)cc1 | -3% | 0.37
c1ccc(COCCCN2CCCC3CCCC32)cc1 (stereo not given) | 0% | -0.03
CCCCn1cc(C(=O)NCC2(OC)CCCC2)c(C)n1 | 3% | -0.4
CN(Cc1cccnc1)[C@H]1CCCN(c2ccccc2)C1 | -2% | 0.24
CCCCN1CCOC[C@H]1C(=O)NC1CCN(C(=O)c2cc(Cl)c[nH]2)CC1 | 5% | -0.62
